Experimental data reported in paper PMC4336329 (PLoS ONE, 2015).
Hit rate of the full screen: of about 310,000 compounds, about 14,000 (4.5%) showed an effect of 50% or more. The effect is printed as a negative number. The list shows a part of the results.

Molecular target: human ether-à-go-go-related gene (hERG) potassium channel (human, UniProt Q12809)
Assay: primary screen, population patch clamp on CHO cells stably expressing hERG
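Also: peak tail current of the secondary pulse compared with the same well before compound.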

Sequence of human ether-à-go-go-related gene (hERG) potassium channel (Q12809 whole entry, looked up): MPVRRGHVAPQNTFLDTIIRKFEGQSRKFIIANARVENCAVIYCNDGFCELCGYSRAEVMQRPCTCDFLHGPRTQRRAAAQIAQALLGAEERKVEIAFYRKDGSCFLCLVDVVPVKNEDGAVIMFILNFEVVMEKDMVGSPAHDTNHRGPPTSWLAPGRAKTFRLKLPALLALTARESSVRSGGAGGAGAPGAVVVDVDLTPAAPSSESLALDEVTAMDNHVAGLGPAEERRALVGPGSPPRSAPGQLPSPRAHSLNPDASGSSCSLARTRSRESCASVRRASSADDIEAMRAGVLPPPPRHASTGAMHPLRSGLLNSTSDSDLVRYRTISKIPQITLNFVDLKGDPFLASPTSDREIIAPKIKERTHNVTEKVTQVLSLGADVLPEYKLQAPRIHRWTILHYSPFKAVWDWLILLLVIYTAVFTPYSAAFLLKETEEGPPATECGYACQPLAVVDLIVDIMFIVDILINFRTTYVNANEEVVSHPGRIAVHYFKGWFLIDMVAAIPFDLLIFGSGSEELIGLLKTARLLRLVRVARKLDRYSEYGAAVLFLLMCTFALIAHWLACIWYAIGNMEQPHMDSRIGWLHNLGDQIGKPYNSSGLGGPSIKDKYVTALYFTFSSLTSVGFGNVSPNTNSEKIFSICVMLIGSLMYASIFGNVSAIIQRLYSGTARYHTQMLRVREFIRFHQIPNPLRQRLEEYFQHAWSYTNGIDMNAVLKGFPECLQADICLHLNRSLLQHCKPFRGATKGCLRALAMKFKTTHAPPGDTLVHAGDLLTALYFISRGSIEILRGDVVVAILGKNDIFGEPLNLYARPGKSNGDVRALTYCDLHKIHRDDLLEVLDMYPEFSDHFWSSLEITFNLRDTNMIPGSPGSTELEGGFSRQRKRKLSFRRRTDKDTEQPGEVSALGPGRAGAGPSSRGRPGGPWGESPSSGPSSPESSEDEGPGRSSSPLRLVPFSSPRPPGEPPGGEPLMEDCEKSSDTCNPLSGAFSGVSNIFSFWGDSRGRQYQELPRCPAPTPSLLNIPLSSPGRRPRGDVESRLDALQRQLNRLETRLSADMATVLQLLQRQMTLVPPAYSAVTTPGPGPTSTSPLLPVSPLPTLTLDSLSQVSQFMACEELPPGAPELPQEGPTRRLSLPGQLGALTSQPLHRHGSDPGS

Structure (SMILES) | hERG current change (%, negative = inhibition) at 10uM [%]
Cc1onc(-c2ccccc2)c1C(=O)NC1CCC(C)CC1 (stereo not shown) | -2.17
Br.COc1ccc(-c2csc(Nc3ccc(S(=O)(=O)Nc4cc(OC)nc(OC)n4)cc3)n2)cc1 | 8.67
CC(=O)C1C2c3ccccc3O[C@@]1(C)N=c1s/c(=C/c3ccoc3)c(=O)n12 (stereo partly shown) | -26.7
C#Cc1ccc([C@@H]2C=C(C(=O)O)O[C@H](OCCCCO)C2)cc1 | 16.3
CN(CCOCCOc1ccc(F)cc1)Cc1ccccc1.O=C(O)C(=O)O | -48.7
CC1CC(C)CN(S(=O)(=O)c2ccc3c(c2)oc(=O)n3CC(=O)NCCCOC(C)C)C1 (stereo not shown) | -2.55
CCOc1ccc2[nH]c3c(NCCOC)ncnc3c2c1 | -9.5
COc1cccc(-c2noc(CCC(=O)Nc3cccnc3)n2)c1 | -5.9
COC(=O)C1=CN(c2ccc(F)cc2)C=C(C(=O)OC)C1c1cccc([N+](=O)[O-])c1 | -26.5
N#CC(c1ccncc1)(c1ncc(C(F)(F)F)cc1Cl)N1CCOCC1 (stereo not shown) | -3.42
CCN(CC)C(=O)CSCc1cnn(-c2ccccc2)c1-n1cccc1 | -24.7
COc1ccc(C)cc1S(=O)(=O)N1CCCCCC1 | -3.18
COc1nc(OC)nc(N2CCCCCC2)n1 | 2.96
Br.NCCCSC1=NCCCN1 | 7.05
COc1cc2c(C)nc3onc(-c4ccccc4)c3c2cc1OC | 14.4
CN1CCN(Cc2cn(C)c3ccccc23)CC1CCO (stereo not shown) | 25.5
Cc1cc(C)n(CC(O)Cn2c3ccc(Br)cc3c3cc(Br)ccc32)c(=O)n1 (stereo not shown) | 19.5
CCOc1ccccc1N(C)C(=O)C1CCN(S(=O)(=O)c2cccc3nonc23)CC1 | -27.1
CCOC(=O)C(C)Oc1ccc(=O)n(-c2ccccc2)n1 (stereo not shown) | 10.8
Cc1ccc(Cn2c(N)nc3ccccc32)cc1 | -10.2
Cc1ccc(S(=O)(=O)NC2(C(F)(F)F)NC(=O)N(c3ccccc3F)C2=O)cc1 (stereo not shown) | 27.4
O=C(CSc1cc([N+](=O)[O-])cc(S(=O)(=O)Cc2ccccc2)c1)NC1CC1 | -9.88

Structure (SMILES) | hERG current change (%, negative = inhibition) at 10uM [%]
CCOC(=O)N1CCN(C(=O)CN(Cc2ccc(Cl)cc2)S(C)(=O)=O)CC1 | -15.5
CCCC/S(C)=N/S(=O)(=O)c1ccc(C)cc1 (stereo not shown) | -3.99
COc1ccc([N+](=O)[O-])cc1NC(=O)CC1SC(=Nc2cccc(C)c2C)N(/N=C/c2cccc(OC)c2OC)C1=O (stereo not shown) | 31.1
C#CC1(O)CCC2C3CCC4=C/C(=N/OCC(=O)NCC(=O)NC(C(=O)O)C(C)C)CC[C@]4(C)C3CC[C@@]21C (stereo partly shown) | 13
Cc1ccsc1/C=N/Nc1ncc(Cl)cc1Cl | 5.75
COc1cc(Oc2nc(C(F)(F)F)nc3ccccc23)ccc1C=O | 17
COC(=O)c1cc(Br)c(=O)n(CCc2ccc(F)cc2)c1 | -24.9
O=C(N/N=C/c1ccc[nH]1)c1ccc(COc2cccc3cccnc23)cc1 | -58.3
CCOc1ccc(N(CC(=O)NN=C2CCCC2)S(C)(=O)=O)cc1 | 4.44
CCCCN1C=C(C(=O)OC)C(c2ccccc2C(F)(F)F)C(C(=O)OC)=C1 | -1.84
Cc1ccc2nc(-c3ccccc3C)oc(=O)c2c1 | 19.4
O=C(Cc1c(Cl)cccc1Cl)Nc1cccc(S(=O)(=O)N2CCOCC2)c1 | 7.21
Nc1ccc(Br)c2c1C(=O)c1ccccc1C2=O | 7.66
COc1cccc(-c2ccc3nnc(SCC(=O)N4CCOCC4)n3n2)c1 | -6.27
O=c1cc(O)c(-c2ccc(Cl)c(Cl)c2)c(Cl)[nH]1 | 11.8
Cc1cc2c(cc1C)CN(c1ccccc1)C2 | 6.46
COc1ccc(N(C(=O)c2snc(C(N)=O)c2N)C(C(=O)NCc2ccc(F)cc2)c2ccc(O)cc2)cc1 (stereo not shown) | 8.38
CC(=O)c1cc(C#N)c(Oc2cccc(C(F)(F)F)c2)nc1C | 16.5
O=C(NCCCN1CCCC1=O)[C@H](CSCc1ccccc1)N1Cc2ccccc2C1=O | 1.78
O=C(COc1cccc(F)c1)Nc1nc(-c2ccncc2)cs1 | 10.4
COC(=O)c1ccc(NC(=O)CSc2ccccc2)cc1 | 3.37
Cc1cc(N)n(C2CCN(C)CC2)n1 | 1.99

Structure (SMILES) | hERG current change (%, negative = inhibition) at 10uM [%]
CS(=O)(=O)Nc1ccc(C(=O)Nc2ccccc2C(=O)NCc2ccco2)cc1 | -69.2
CCC1=[N+]([O-])C(C)(/C(C)=N\O)N(O)C1(C)C (stereo not shown) | 6.42
Cc1c(OCc2nn[nH]n2)ccc2c3c(c(=O)oc12)CCC(C)C3 (stereo not shown) | 5.16
CC(NC(=O)COC(=O)C1CC2CCCC(C1)C2=O)c1ccccc1 (stereo not shown) | 2.23
O=C(NC1CCCC1)C(c1ccccc1)N(C(=O)c1ccno1)c1cccnc1 (stereo not shown) | 5.57
CC(=O)c1ccc(NS(=O)(=O)c2cccc(C)c2)cc1 | -1.86
O=C(Nc1ccccc1)N1CCC(O)(c2cccc(C(F)(F)F)c2)CC1 | -6.72
Cc1ccc(S(=O)(=O)CC(O)CN2CCCC2=O)cc1 (stereo not shown) | 26.2
Cc1ccc(OCCSc2nc3ccccc3n2CC(=O)O)cc1C | 14.6
O=C1CN(C(=O)CSc2ccc(-c3ccc(F)cc3)nn2)c2ccccc2N1 | -42.5
COc1ccc(NS(=O)(=O)c2ccc(C)c(C(=O)NCC(c3cccs3)N3CCOCC3)c2)cc1 (stereo not shown) | -20.3
CCOC(=O)c1ccc(N2CCCCC2)c(NS(=O)(=O)c2cccc(C(F)(F)F)c2)c1 | -0.976
O=S(=O)(c1ccc2c(c1)C(=NO)c1cc(S(=O)(=O)N3CCCCC3)ccc1-2)N1CCCCC1 | 12.9
c1ccc(Cc2c[nH]c3ccccc23)cc1 | 6.17
CC(C)N(CCNCC(O)COc1ccc(C(C)(C)c2ccccc2)cc1)C(C)C.O=C(O)C(=O)O (stereo not shown) | -79
CC(C)Oc1cccc(C(=O)C2CCCN(C(=O)CCc3cnn(C)c3)C2)c1 (stereo not shown) | -0.965
Cc1ccc(C(C)(C)NC(=O)C2CCC(=O)N(CCCN3CCOCC3)C2)cc1 (stereo not shown) | 2.36
O=C(NCC(=O)N1CCC2(CC1)NCCc1[nH]cnc12)c1ccc(Br)cc1 | 5.49
Cc1cccc(CCNc2nc3ccccc3n3nnnc23)c1 | 6.79
Cc1ccc(C)c(OCC(=O)N2CCN(c3ncccn3)CC2)c1 | 2.88
CCOc1ccc(NC(=O)CN(C)CC(=O)NC2CCCc3ccccc32)cc1OCC (stereo not shown) | -7.73
Cc1ccc(N2C(=O)/C(=C/c3ccc(CN(CCC#N)S(C)(=O)=O)o3)C(=O)NC2=S)cc1 | 15.9

Structure (SMILES) | hERG current change (%, negative = inhibition) at 10uM [%]
Cc1ccc(NC(=O)C/C(N)=N/OC(=O)Nc2ccc(C)c(Cl)c2)cc1 | 4.56
COc1ccc(-c2csc(NC(=O)c3cc(C)oc3C)n2)cc1OC | -14.7
Cc1cc(N2CCOCC2)ccc1/C=C1\NC(=O)N(CC(=O)Nc2ccccc2C)C1=O | 9.59
CC1(C)NC(=O)N(CC(O)CN2CCCC2)C1=O (stereo not shown) | 7.72
Cc1noc(C)c1S(=O)(=O)NCc1cccc(Cl)c1 | -2.56
Nc1[nH]c(N=NC(=O)c2ccc(Cl)cc2)c2ccccc12 | 5.16
O=C(N/N=C/c1ccccc1Br)c1ccc(CSc2cccc3cccnc23)cc1 | 2.55
Cn1nc(OCC(N)=O)ccc1=O | 24.8
O=C(OC(C(=O)NC1CCCCC1)c1ccc(C(F)(F)F)cc1)c1ccco1 (stereo not shown) | 4.41
O=C1N(CC(=O)N2CCc3ccccc32)CCN1Cc1ccc(Cl)cc1 | -11.8
NS(=O)(=O)c1ccc(NC(=O)c2cccc3ccccc23)cc1 | 5.59
COc1cc(CNCCCN2CCOCC2)cc(Br)c1OCc1ccc(Cl)cc1.Cl | -35.5
CCOC(=O)c1sc2nc(-c3cccnc3)ccc2c1N | 1.77
CCN1CCN(C2CC(=O)NC2=O)CC1 (stereo not shown) | 2.12
CCC(C)(C)n1nnnc1C(c1ccccn1)N1CCN(c2cccc(OC)c2)CC1 (stereo not shown) | -1.13
Cc1ccc(-c2cc(C(F)(F)F)n3nc(C(=O)N4CCN5CCCC5C4)cc3n2)cc1 (stereo not shown) | -48.3
CNc1ccncc1S(=O)(=O)NC | 12.5
O=C(COC(=O)c1ccccc1C(=O)c1ccccc1)c1ccco1 | -24.6
CCOC(=O)c1noc(C)c1C(=O)Nc1nc(C)cc(C)n1 | 11.5
O=C(CSc1nc2ccc([N+](=O)[O-])cc2[nH]1)NC1CCCC1 | -19.3
COc1ccc(S(=O)(=O)N2CCOCC2)cc1NC(=O)CN1C(=O)NC2(CCCC2)C1=O | 9.31
O=C(CSc1n[nH]c(-c2ccccc2F)n1)NCC(=O)Nc1ccc(F)c(F)c1F | 6.62
